Test results taken from the RNAGym collection of RNA variant scans (doi:10.1093/nar/gkz1192).
The source gives no read counts; variants with many changes may rest on few reads.

B1: CPEB3 Ribozyme (parent)
chain: UAACAGGGGGCCACAGCAGAAGCGUUCACGUCGCAGCCCCUGUCAGAUUCUGGUGAAUCUGCGAAUUCUGCUGUAUAUCUC

Variants of: B1
Experiment: self-cleavage, relative activity (ratio to wild type); higher = more cleavage; in vitro, sequencing
In short: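 Libraries of CPEB3 self-cleaving ribozyme mutants came from rounds of error-prone PCR and carried barcodes, which DNA sequencing matched to variants. In vitro transcription used T7 RNA polymerase at 37°C for 5 hours, with a further 15 min in DNase I before EDTA stopped the reaction; the ribozymes cleaved during both steps. The RNA was reverse transcribed with template switching and sequenced on Illumina. Relative activity is the cleaved/total read fraction of a variant divided by that of the unmutated ribozyme, averaged over three batches with at least 5 reads.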
In the case of G7A U41G U69C, the self-cleavage is reported as 0.09.
For G8A A15G A21G C23U U60C, the self-cleavage was 0.04.
With G7C U69C U76C the self-cleavage was 0.08.
With G7C A35U U49C U78C the self-cleavage was 0.06.
In the case of G7A U25C A45U U72A, the self-cleavage is reported as 0.06.
G8A A13U A15C G33A U49A U58C U78C gave a self-cleavage of 0.03.
With G7A C39G A57G A77G U80C the self-cleavage was 0.05.
G7U A15G G42A U51G U58C U78C gave a self-cleavage of 0.04.
For G7A U69A U78C, the self-cleavage was 0.23.
G7U C23A A35U U80C gave a self-cleavage of 0.05.
G8A A15G U25A U41C G46U U66C gave a self-cleavage of 0.01.
G7C U69C U80A showed a self-cleavage of 0.1.
Variant G7A G42U A45G A57G has a self-cleavage of 0.05.
In the case of G8A A15G U31C A35G U43C, the self-cleavage is reported as 0.06.
G7A C23U U41A U80C showed a self-cleavage of 0.19.
G7C A15G A35G A57U U78C showed a self-cleavage of 0.28.
Variant G7U A35U U58C has a self-cleavage of 0.12.
With G7U G22C U26A U41A the self-cleavage was 0.06.
For G7A C32U U72A, the self-cleavage was 0.12.
Variant G7A U26C U54C U67C has a self-cleavage of 0.11.
Work on G7C A15C A20G G22U U49A yielded a self-cleavage of 0.45.
G7A A35U U78C showed a self-cleavage of 0.2.
For G7C A18C A21U, the self-cleavage was 0.21.
G7C U25C U49C showed a self-cleavage of 0.33.
Work on G7C U26C G33C yielded a self-cleavage of 0.2.
Variant G7C U26A G36C U51C has a self-cleavage of 0.13.
Variant G7U A15G A21U U48C C68A has a self-cleavage of 0.05.
Variant G7U A21G G33A U72C has a self-cleavage of 0.22.
Work on G7A U67C U74G yielded a self-cleavage of 0.04.
G7A A45U U54A A56U A77C U80A showed a self-cleavage of 0.04.
In the case of G8A A15U U43C U51A U72C, the self-cleavage is reported as 0.06.
G7U U31C U43G G63A U67C gave a self-cleavage of 0.04.
In the case of G8A A13U A47G A56G A57G U72C, the self-cleavage is reported as 0.19.
With G7U C23U A47U G52A U72A the self-cleavage was 0.16.
For G7A U26C U43C U60C U66C, the self-cleavage was 0.06.
Variant G7A C17U U25A U41A A45G has a self-cleavage of 0.08.
G7A U25A A56G showed a self-cleavage of 0.12.
G7U A28U U31C A57G U80G showed a self-cleavage of 0.09.
In the case of G7U G19C U49C A65G U72C, the self-cleavage is reported as 0.2.
With G7C G16C A57G G61A U76C the self-cleavage was 0.1.
G7A G24A U25C G53C U72A gave a self-cleavage of 0.07.
G7C A15G A18G A28G U41A U69A U74C gave a self-cleavage of 0.05.
G7A U25A C40G A45G U49G U69A showed a self-cleavage of 0.09.
G7U G8A U25A A56U gave a self-cleavage of 0.07.
Variant G7U A20G A35U U54A has a self-cleavage of 0.07.
G7U A35U U67C gave a self-cleavage of 0.35.
G7A U25C A35G U41C gave a self-cleavage of 0.06.
In the case of G8A A13G G33C C37A, the self-cleavage is reported as 0.07.
In the case of G7C A28U U54C A56G A77U, the self-cleavage is reported as 0.07.
G7U U49A A64G U72C showed a self-cleavage of 0.08.
With G7U C17A U25A A28U A65U C79U the self-cleavage was 0.03.
In the case of G7A G33A U49C, the self-cleavage is reported as 0.05.
Work on G7U A28U A56U C62U A77U yielded a self-cleavage of 0.09.
For G8A A13G A45G U54A, the self-cleavage was 0.08.
For G7U G24U U69C A77U, the self-cleavage was 0.11.
For G7C A18U G19C A28C C32U A45G U66C, the self-cleavage was 0.12.
With G7A A21G A45U U74G U78C the self-cleavage was 0.26.
Work on G7A A56U U58A U78C yielded a self-cleavage of 0.09.
Variant G7C G30C A56G has a self-cleavage of 0.23.
G7U A56G A57G U69C U78C showed a self-cleavage of 0.09.
G7U A28G A45G U54C U80A showed a self-cleavage of 0.2.
Work on G7A U25C C27A U51C A64G yielded a self-cleavage of 0.05.
Variant G8A A15G A77U has a self-cleavage of 0.06.
With G7U C11U U41C G52A U72C U80G the self-cleavage was 0.09.
G7C G30C C39U U43C U60A U74C A75G showed a self-cleavage of 0.06.
Variant G8A A15G U72C U80C has a self-cleavage of 0.11.
In the case of G7A A28G A35U, the self-cleavage is reported as 0.06.
For G7A A21G U25C C39U U60A U80A, the self-cleavage was 0.07.
G7U U31C U74G U78C showed a self-cleavage of 0.21.
Work on G7A U25C U48C U54C U69G U72A yielded a self-cleavage of 0.16.
Work on G7U C44U U58A yielded a self-cleavage of 0.08.
Work on G7U A56G A65C U78C yielded a self-cleavage of 0.07.
For G7U U41C U51C A56G C71U, the self-cleavage was 0.1.
Work on G8A A13U C32U U74C U80A yielded a self-cleavage of 0.08.
G7C C23U U31A U41C showed a self-cleavage of 0.36.
G7A C29U U31A U43C U67C gave a self-cleavage of 0.01.
For G7C G16U A64C, the self-cleavage was 0.1.
For G7U A20U U31C, the self-cleavage was 0.18.
Variant G7C A20U G53A U54C has a self-cleavage of 0.19.
Work on G7A U48C U78A yielded a self-cleavage of 0.16.
G7U A20G A35U U80C showed a self-cleavage of 0.06.
G7A G9A C29U gave a self-cleavage of 0.06.
Work on G7A A28G U41C U72A yielded a self-cleavage of 0.06.
Work on G7A U54A A64G yielded a self-cleavage of 0.19.
